Measurements reported in ChEMBL document CHEMBL4888484, “Replenishing the malaria drug discovery pipeline: Screening and hit evaluation of the MMV Hit Generation Library 1 (HGL1) against asexual blood stage Plasmodium falciparum ,using a nano luciferase reporter read-out” (2022).
Hit rate of the full screen: of about 150,000 compounds, about 540 (0.36%) showed an effect of 50% or more. Some of the results follow.

Each molecule was assayed on Plasmodium falciparum (assay: Primary screen in NF54 nanoGlo assay, in single point, at 2uM, 72h; a lower Z score goes with more inhibition). Settings: timepoint 72 hour.
Assay type: functional, Erythrocyte

**Q.** With `COCc1nc(C)cc(NCCc2c[nH]c3cc(F)c(Cl)cc23)n1` as the molecule, how does the “% Inhibition” value read?
**A.** The value was -3%.

**Q.** What about the Z score of the same molecule?
**A.** The Z score was 0.5.

**Q.** How did the “% Inhibition” value turn out when `COc1cc(-c2nnc(NC(=O)C3CCCCC3)o2)cc(OC)c1OC` was run?
**A.** The value was 14%.

**Q.** What about the Z score of the same molecule?
**A.** Its Z score is -1.92.

**Q.** `c1csc(-c2nc(Cn3cnc4c3CCNC43CCOCC3)co2)c1` was tested. Which “% Inhibition” value did it give?
**A.** The value was -7%.

**Q.** And the Z score?
**A.** The Z score was 1.2.

**Q.** How did the “% Inhibition” value turn out when `OC1(c2nc(COCc3ccccc3)no2)CCCCC1` was run?
**A.** Its value is -13%.

**Q.** And the Z score?
**A.** The Z score was 1.69.

**Q.** What does the source list for `CN1C(=O)COC12CCN(C(=O)Cc1ccccc1N1CCCC1=O)CC2`?
**A.** % Inhibition: 1%; Z score: -0.15

**Q.** Which “% Inhibition” value does the source give for `CNC(=O)CCN(C)c1nc(-c2c[nH]c3ccccc23)nc2c1CNC2` here?
**A.** Its value is -5%.

**Q.** And the Z score?
**A.** Its Z score is 0.85.

**Q.** Which results are given for `CNC(=O)CCS(=O)(=O)CCCC(=O)Nc1c(C)cc(C)cc1C`?
**A.** % Inhibition: 36%; Z score: -4.64

**Q.** `O=C(c1ccccc1)n1c(=O)n(C(=O)c2ccccc2)c2ccccc21` was tested. Which “% Inhibition” value did it give?
**A.** Its value is 33%.

**Q.** And the Z score?
**A.** Its Z score is -0.79.

**Q.** What does the source list for `c1ccc2c(N[C@@H]3C[C@H]4CC[C@@H]3O4)ccnc2c1`?
**A.** % Inhibition: 3%; Z score: -0.51

**Q.** What does the source list for `Cc1ccc([C@H](CC(F)(F)F)NCc2c[nH]c3nccnc23)cc1`?
**A.** % Inhibition: -2%; Z score: 0.45

**Q.** Which results are given for `CC(C)c1cc(NC(=O)Nc2ccn(CCC#N)n2)[nH]n1`?
**A.** % Inhibition: -2%; Z score: 0.34

**Q.** How did the “% Inhibition” value turn out when `C[C@H]1Cc2cc(S(=O)(=O)NC(=O)c3cncc(F)c3)cc(Cl)c2O1` was run?
**A.** Its value is -4%.

**Q.** And the Z score?
**A.** Its Z score is 0.79.

**Q.** Which “% Inhibition” value does the source give for `O=C(c1ccccc1)N1CCC(N2CC[C@@H]3OCc4cnnn4[C@H]3C2)CC1` here?
**A.** Its value is 11%.

**Q.** And the Z score?
**A.** The Z score was -1.48.

**Q.** With `CCOCCNC(=O)C(=O)Nc1ccc(C(F)(F)F)cc1Cl` as the molecule, how does the “% Inhibition” value read?
**A.** Its value is 1%.

**Q.** And the Z score?
**A.** The Z score was -0.12.

**Q.** What does the source list for `Cc1nn(C)c(C)c1CCN/C(=N\c1cccc(F)c1)NC(=O)c1ccc(C(F)(F)F)cc1`?
**A.** % Inhibition: 2%; Z score: -0.37

**Q.** How did the “% Inhibition” value turn out when `C[C@H]1CN(Cc2cn(C(C)(C)C)nn2)CCN1c1nc2ccccc2o1` was run?
**A.** Its value is -5%.

**Q.** And the Z score?
**A.** The Z score was 0.45.

**Q.** What does the source list for `Cn1ncc(NC(=O)Cc2cccc(F)c2)c(N2CCOCC2)c1=O`?
**A.** % Inhibition: -27%; Z score: 5.08

**Q.** Which results are given for `Cc1cnccc1CC(=O)NC[C@H](C)Oc1ccc(Cl)cc1`?
**A.** % Inhibition: -6%; Z score: 0.74

**Q.** How did the “% Inhibition” value turn out when `C[C@H](NC(=O)C1=CCCCO1)c1ccccc1N1CCOCC1` was run?
**A.** Its value is 1%.

**Q.** And the Z score?
**A.** The Z score was -0.12.

**Q.** Which results are given for `COCCn1nnn(-c2ccc(NC(=O)NC3CCCCC3)cc2)c1=O`?
**A.** % Inhibition: -15%; Z score: 2.91

**Q.** `Cc1cccc(NC(=O)Cn2nnn(C3CC3)c2=O)c1` was tested. Which “% Inhibition” value did it give?
**A.** The value was 11%.

**Q.** And the Z score?
**A.** The Z score was -1.42.

**Q.** For `O=C(c1occ2c1CCC2)N1CC(Oc2nccs2)C1`, which “% Inhibition” value is on record?
**A.** The value was -13%.

**Q.** What about the Z score of the same molecule?
**A.** The Z score was 1.67.

**Q.** How did the “% Inhibition” value turn out when `Cc1ccc(NC(=O)Nc2ccn(Cc3ccncc3)n2)c(C)n1` was run?
**A.** The value was -37%.

**Q.** What about the Z score of the same molecule?
**A.** Its Z score is 4.37.

**Q.** With `CCN1CC[C@@]2(CCC1=O)CN(CCn1cc(Cl)cn1)CCN2C` as the molecule, how does the “% Inhibition” value read?
**A.** Its value is 2%.

**Q.** What about the Z score of the same molecule?
**A.** Its Z score is -0.27.

**Q.** `CN(CCCn1cccn1)CCc1ccncc1` was tested. Which “% Inhibition” value did it give?
**A.** The value was -4%.

**Q.** And the Z score?
**A.** The Z score was 0.6.

**Q.** With `O=S(=O)(Cc1ccncc1)Cc1cccc(OC(F)F)c1` as the molecule, how does the “% Inhibition” value read?
**A.** The value was -8%.

**Q.** And the Z score?
**A.** Its Z score is 1.27.

**Q.** Which results are given for `NC(=O)[C@@H]1CCCN1CCCNC(=O)N1CCC2(CCCCC2)C1`?
**A.** % Inhibition: -6%; Z score: 0.82

**Q.** `c1nc(-c2noc([C@H]3CCCc4[nH]nnc43)n2)co1` was tested. Which “% Inhibition” value did it give?
**A.** Its value is 0%.

**Q.** And the Z score?
**A.** Its Z score is -0.04.

**Q.** For `CN(C(=O)N[C@H](c1cc2ccccc2o1)C1CC1)C1CC1`, which “% Inhibition” value is on record?
**A.** Its value is 14%.

**Q.** And the Z score?
**A.** The Z score was -2.18.

**Q.** What does the source list for `c1ccc(CCCN2CC[C@H]3[C@H](CCCN3Cc3cccn3-c3nccs3)C2)cc1`?
**A.** % Inhibition: -8%; Z score: 1.55

**Q.** How did the “% Inhibition” value turn out when `Cc1cnc(CN2CCC(C(=O)NCc3ccccc3)CC2)cn1` was run?
**A.** Its value is -8%.

**Q.** What about the Z score of the same molecule?
**A.** Its Z score is 1.18.

**Q.** Which results are given for `Fc1ccc(-c2nnc(-c3cnc4onc(-c5ccccc5)c4c3)o2)cc1`?
**A.** % Inhibition: 14%; Z score: -1.86

**Q.** What does the source list for `O=C(O)C1CC2(C1)C[C@@H](NCc1cc(F)cc(Cl)c1)CCO2` (stereo partly specified)?
**A.** % Inhibition: -6%; Z score: 1.25

**Q.** How did the “% Inhibition” value turn out when `O=C(Cn1nc2c(N3CCCCCC3)nccn2c1=O)Nc1ccc(F)cc1` was run?
**A.** The value was 10%.

**Q.** And the Z score?
**A.** Its Z score is -1.

**Q.** `O=C(NCc1ccc(-c2ncon2)cc1)C1CCCCCC1` was tested. Which “% Inhibition” value did it give?
**A.** The value was -8%.

**Q.** And the Z score?
**A.** The Z score was 1.75.

**Q.** How did the “% Inhibition” value turn out when `COCC1(CNC(=O)c2c(C)ncnc2C)CC1` was run?
**A.** Its value is 8%.

**Q.** And the Z score?
**A.** Its Z score is -1.04.

**Q.** What does the source list for `Cc1nc(CNC(=O)c2cncc(Cl)c2C)ccc1[C@H](C)O`?
**A.** % Inhibition: -7%; Z score: 0.87

**Q.** For `O=C1NCCC[C@@H]1Nc1nc(C2CCCC2)ns1`, which “% Inhibition” value is on record?
**A.** The value was -15%.

**Q.** What about the Z score of the same molecule?
**A.** Its Z score is 2.31.

**Q.** With `CCn1cnnc1C[C@H]1CCN(S(=O)(=O)c2ccc3c(c2)CCC3)C1` as the molecule, how does the “% Inhibition” value read?
**A.** The value was -4%.

**Q.** What about the Z score of the same molecule?
**A.** The Z score was 0.71.

**Q.** With `CCCN(CCC(=O)N1CCNCC1)C(=O)c1cccc(Cl)c1` as the molecule, how does the “% Inhibition” value read?
**A.** The value was -13%.

**Q.** What about the Z score of the same molecule?
**A.** Its Z score is 1.72.

**Q.** `CC1=NN(C(=O)Cc2ccc(Cl)c(O)c2)C(=O)C1` was tested. Which “% Inhibition” value did it give?
**A.** The value was 34%.

**Q.** What about the Z score of the same molecule?
**A.** The Z score was -4.35.

**Q.** How did the “% Inhibition” value turn out when `COc1cccc(OC)c1CC(=O)N1CC[C@H](O)C12CCCC2` was run?
**A.** Its value is 12%.

**Q.** And the Z score?
**A.** The Z score was -1.43.

**Q.** For `CCn1nccc1-c1ncc(F)c(N2CCOCC2)n1`, which “% Inhibition” value is on record?
**A.** Its value is -1%.

**Q.** What about the Z score of the same molecule?
**A.** The Z score was 0.18.
